{"source": "PubChem BioAssay AID588342", "about": "(National Center for Advancing Translational Sciences (NCATS), 2011)", "note": "Hit rate of the full screen: of about 360,000 compounds, about 25,000 (6.9%) were called active. Inconclusive means that the source gave no clear call. Such entries were picked first, then a sample of the others. Calls follow the shape of the dose curve; as a rule, active = well fitted inhibition curve with a large enough effect; inconclusive = small, poorly fitted or top-dose-only effect; inactive = flat fitted curve, though single readings scatter. A potency beside an inconclusive call is a rough fit, not a confirmed value. Potency is read from the fitted curve at half-maximal effect; tags tell the direction and shape of the fitted curve."}
{"biological_target": "Luciferin 4-monooxygenase (Photinus pyralis) (UniProt P08659)", "sequence (P08659 whole entry, looked up)": "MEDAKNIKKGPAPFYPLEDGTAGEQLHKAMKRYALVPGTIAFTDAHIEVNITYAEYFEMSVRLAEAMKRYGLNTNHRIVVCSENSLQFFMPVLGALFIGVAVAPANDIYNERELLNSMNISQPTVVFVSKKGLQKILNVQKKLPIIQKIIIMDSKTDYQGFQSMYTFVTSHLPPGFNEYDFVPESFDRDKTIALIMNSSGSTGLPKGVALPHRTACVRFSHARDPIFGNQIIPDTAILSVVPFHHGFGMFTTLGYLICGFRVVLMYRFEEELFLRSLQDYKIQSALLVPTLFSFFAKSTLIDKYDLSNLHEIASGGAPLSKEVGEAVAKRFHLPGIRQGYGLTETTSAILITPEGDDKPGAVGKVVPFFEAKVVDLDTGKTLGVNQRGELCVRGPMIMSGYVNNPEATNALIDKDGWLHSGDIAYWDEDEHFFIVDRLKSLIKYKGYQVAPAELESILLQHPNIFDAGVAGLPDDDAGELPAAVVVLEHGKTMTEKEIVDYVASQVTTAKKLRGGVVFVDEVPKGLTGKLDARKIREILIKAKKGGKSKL", "experiment": "qHTS profiling assay for firefly luciferase inhibitor/activator using purifed enzyme and Km concentrations of substrates (counterscreen for miR-21 project); also: nearly all actives have a fitted effect of over 55% in size", "conditions": "purified FLuc, luminescence inhibition; series mostly up to 57.5 µM", "procedure,_shortened": "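Purified P. pyralis luciferase (10nM final) with 10uM D-luciferin and 10uM ATP (Km levels) in 50mM Tris acetate pH 7.5, 10mM Mg acetate, 0.01% Tween-20, 0.05% BSA; qHTS 6-point titration, ~60 µM downward; luminescence read.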"}
{"smiles": "Cc1c(NC(=O)c2ccc(Br)o2)cccc1-c1nc2ccccc2o1", "Potency": "inactive"}
{"smiles": "CC1CCN(C(=O)/C(=C\\c2cccs2)NC(=O)c2ccccc2)CC1", "Potency": "inconclusive: 21.3 µM [inhibitor, partial curve, poor fit]"}
{"smiles": "COc1ccc2nc(SCC(=O)/C(C#N)=C(\\C)N)[nH]c2c1", "Potency": "active: 8.49 µM"}
{"smiles": "CCCOc1cccc(C(=O)Nc2ccc(-c3cc4ccccc4oc3=O)c(C)c2)c1", "Potency": "inconclusive: 5.36 µM [inhibitor, partial curve, poor fit]"}
{"smiles": "CCCSc1nc2sc3c(c2c(=O)n1-c1cccc(Br)c1)CC(C)(C)OC3", "Potency": "inactive"}
{"smiles": "Cc1ccc(/C=C/c2nnc(-c3cccc(C)c3)o2)cc1", "Potency": "inactive"}
{"smiles": "COc1ccccc1N1CCN(C(=O)/C=C/c2ccco2)CC1", "Potency": "inconclusive: 26.9 µM [inhibitor, partial curve, poor fit]"}
{"smiles": "COC(=O)/C=C1\\SC(N2CCOCC2)=C(c2ccc(OC)cc2)C1=O", "Potency": "inconclusive: 21.3 µM [inhibitor, partial curve, poor fit]"}
{"smiles": "Cc1cc(C)nc(N/N=C/c2c[nH]c3ccccc23)n1", "Potency": "inconclusive: 26.9 µM [inhibitor, partial curve]"}
{"smiles": "O=[N+]([O-])c1cccc(-c2nc3ccc([N+](=O)[O-])cc3[nH]2)c1", "Potency": "inconclusive: 7.57 µM [inhibitor, partial curve]"}
{"smiles": "CCOC(=O)c1cc(C)n(CCc2ccccc2)c1C", "Potency": "inconclusive: 37.9 µM [inhibitor, partial curve, poor fit]"}
{"smiles": "Cc1c(OCC(=O)OC(C)(C)C)ccc2c3c(c(=O)oc12)CCC3", "Potency": "inconclusive: 23.9 µM [inhibitor, partial curve, poor fit]"}
{"smiles": "COc1cc(/C=N/Nc2ccccn2)ccc1OCC(C)C", "Potency": "active: 2.69 µM"}
{"smiles": "Cc1cc(C)c2nc(NC(=O)c3ccc(S(=O)(=O)N4CCC(C)CC4)cc3)sc2c1", "Potency": "inconclusive: 8.49 µM [inhibitor, partial curve, poor fit]"}
{"smiles": "CC(C)(C)C(=O)N1CCN(c2nc3ccc(Cl)cc3s2)CC1", "Potency": "active: 10.7 µM"}
{"smiles": "COC(=O)CCSCC(=O)Nc1cc(C)on1", "Potency": "inactive"}
{"smiles": "CC(C)OC(=O)/C(C#N)=C/c1ccc(-c2ccc(Cl)c(Cl)c2)o1", "Potency": "inconclusive: 7.57 µM [inhibitor, partial curve, poor fit]"}
{"smiles": "NC(=O)C1CCN(c2nc(-c3cccs3)cs2)CC1", "Potency": "inconclusive: 23.9 µM [inhibitor, single point]"}
{"smiles": "CCc1ccc2nc(SCC(=O)N3CC(=O)Nc4ccccc43)c(C#N)cc2c1", "Potency": "inactive"}
{"smiles": "CC(=O)Cc1nsc(Nc2ccc(Cl)cc2)n1", "Potency": "inconclusive: 37.9 µM [inhibitor, single point]"}
{"smiles": "O=C(COC(=O)C1CCC1)Nc1ncc(Cl)cc1Cl", "Potency": "inactive"}
{"smiles": "S=c1[nH]nc(COc2ccccc2)n1/N=C/c1ccco1", "Potency": "inactive"}
{"smiles": "CC(=O)c1c(C)[nH]c(C(=O)OCC(=O)Nc2c(C)n(C)n(-c3ccccc3)c2=O)c1C", "Potency": "inactive"}
{"smiles": "CC(C)(C)c1ccc(/C=C/C(=O)N2CCN(c3ncccn3)CC2)cc1", "Potency": "active: 23.9 µM"}
{"smiles": "CCCCOc1ccccc1C(=O)Nc1onc2c1CCCC2", "Potency": "inactive"}
{"smiles": "CCC(=O)c1ccc(OCc2ccc(C(=O)OC)o2)c(OC)c1", "Potency": "inactive"}
{"smiles": "COc1cccc(-c2c(C#N)c(N)nc3c2c(=O)nc2sccn23)c1", "Potency": "inactive"}
{"smiles": "COc1ccc(-c2nc(C#N)c(NCc3ccc(F)cc3)o2)cc1OC", "Potency": "inconclusive: 37.9 µM [inhibitor, single point]"}
{"smiles": "CCOC(=S)SCC(=O)Nc1nc(-c2ccccc2)cs1", "Potency": "inconclusive: 37.9 µM [inhibitor, partial curve, poor fit]"}
{"smiles": "CC(C(=O)Nc1ccccn1)N1C(=O)c2ccccc2S1(=O)=O", "note": "(centres undefined)", "Potency": "inactive"}
{"smiles": "CC(=O)c1ccc(NC(=O)CCc2nc(-c3ccc(C)cc3)no2)cc1", "Potency": "inconclusive: 30.1 µM [inhibitor, single point]"}
{"smiles": "CC(C)=CC(=O)OCc1cc([N+](=O)[O-])cc2c1OCOC2", "Potency": "active: 23.9 µM"}
{"smiles": "CC12CN3CC(C)(CN(C1)C3c1c[nH]c3ccccc13)C2=O", "note": "(centres undefined)", "Potency": "inactive"}
{"smiles": "CCOC(=O)c1ccc(NC(=O)CC2C(=O)N(c3ccc(F)cc3)C(=O)N2Cc2ccc(C)cc2)cc1", "note": "(centres undefined)", "Potency": "inactive"}
{"smiles": "COc1ccc(CN2C(=O)C(C)S/C2=N/N=C/c2ccco2)cc1", "note": "(centres undefined)", "Potency": "active: 15.1 µM"}
{"smiles": "Cc1ccc2nc(C3CCCN(C(=S)Nc4cccc(C)c4C)C3)[nH]c2c1", "note": "(centres undefined)", "Potency": "inconclusive: 19 µM [inhibitor, partial curve]"}
{"smiles": "CCOc1cc(C2Sc3ccccc3NC3=C2C(=O)c2ccccc23)ccc1O", "note": "(centres undefined)", "Potency": "inconclusive: 15.1 µM [inhibitor, partial curve, poor fit]"}
{"smiles": "Cc1cc2nc(-c3cccnc3SCC(=O)NC3CC3)[nH]c2cc1C", "Potency": "active: 2.69 µM"}
{"smiles": "O=C(CCl)N(C/C=C/c1ccccc1)c1ccc2c(c1)OCCO2", "Potency": "active: 23.9 µM"}
{"smiles": "CCOC(=O)c1ccc(NC(=O)c2cccnc2)cc1", "Potency": "inconclusive: 12 µM [inhibitor, partial curve]"}
{"smiles": "COC(=O)CCC(=O)c1oc2ccccc2c1N", "Potency": "active: 21.3 µM"}
{"smiles": "COc1cccc(/C=N/c2nc3ccccc3[nH]2)c1O", "Potency": "active: 19 µM"}
{"smiles": "COc1ccc(C2CC(=O)C3=C(C2)NC(C)=C(C(=O)Nc2ccccc2C)C3c2coc3ccc(C)cc3c2=O)cc1OC", "note": "(centres undefined)", "Potency": "inconclusive: 30.1 µM [inhibitor, single point]"}
{"smiles": "O=C(NC(=S)NNC(=O)c1ccccc1O)c1cccnc1", "Potency": "inconclusive: 26.9 µM [inhibitor, single point]"}
{"smiles": "COc1cccc2c(=O)c3cccc(N)c3[nH]c12", "Potency": "inconclusive: 21.3 µM [inhibitor, partial curve, poor fit]"}
{"smiles": "Cc1cc(Cl)ccc1OCC(=O)N/N=C1\\CC2C=CCC12", "note": "(centres undefined)", "Potency": "inconclusive: 33.8 µM [inhibitor, single point]"}
{"smiles": "CCCCc1ccc(NC(=S)N2CCCC2)cc1", "Potency": "inconclusive: 23.9 µM [inhibitor, single point]"}
{"smiles": "CN(C)c1ccc(-c2c(-c3ccc4c(c3)OCO4)noc2-c2ccsc2)cn1", "Potency": "inconclusive: 21.3 µM [inhibitor, partial curve]"}
{"smiles": "CC(C)Oc1ccccc1/C=N/NC(=O)c1ccccc1Cl", "Potency": "inconclusive: 37.9 µM [inhibitor, single point]"}
{"smiles": "COCC(=O)Nc1ccc(Br)cc1C", "Potency": "inactive"}
{"smiles": "COc1cccc(-c2ccc(SCc3ccccn3)nn2)c1", "Potency": "active: 10.7 µM"}
{"smiles": "O=S(=O)(Nc1ccc(-c2ccc(N3CCCC3)nn2)cc1)c1cc(F)ccc1F", "Potency": "inconclusive: 15.1 µM [inhibitor, partial curve]"}
{"smiles": "COc1cccc(CNC(=O)c2ccc(Cl)c(NC3=NC4CS(=O)(=O)CC4S3)c2)c1", "note": "(centres undefined)", "Potency": "inactive"}
{"smiles": "CC(C)(C)C(=O)COC(=O)c1cc(-c2cccnc2)nc2ccccc12", "Potency": "inconclusive: 30.1 µM [inhibitor, single point]"}
{"smiles": "Oc1ccc(/C=N\\Nc2cc(N3CCOCC3)nc(N3CCOCC3)n2)c(O)c1", "Potency": "inconclusive: 19 µM [inhibitor, partial curve]"}
{"smiles": "COc1ccc(CCC(=O)OCC(=O)Nc2sccc2C(N)=O)cc1", "Potency": "inconclusive: 9.53 µM [inhibitor, partial curve]"}
{"smiles": "COc1ccc2[nH]c3c(=O)n(Cc4ccc(C(=O)N5CCC(C(N)=O)CC5)cc4)c(=S)[nH]c3c2c1", "Potency": "active: 21.3 µM"}
{"smiles": "CCOc1ccc(NC(=O)c2cccc3c2C(=O)N(CCOC)C3)cc1", "Potency": "active: 6.75 µM"}
{"smiles": "O=C1/C(=C/c2c[nH]c3ccccc23)CCC/C1=C\\c1c[nH]c2ccccc12", "Potency": "inconclusive: 23.9 µM [inhibitor, partial curve, poor fit]"}
{"smiles": "O=C(c1ccc2c(c1)N(Cc1cccc(Cl)c1)C(=O)c1ccccc1S2)N1CCOCC1", "Potency": "inactive"}
{"smiles": "CCCn1nc(C(=O)N2CCN(S(=O)(=O)c3ccc(C)c(C)c3)CC2)c2ccccc2c1=O", "Potency": "inactive"}
{"smiles": "c1ccc(OCCn2c(COc3ccccc3)nc3ccccc32)cc1", "Potency": "inconclusive: 19 µM [inhibitor, partial curve, poor fit]"}
{"smiles": "O=C(COC(=O)c1cc(S(=O)(=O)N2CCOCC2)ccc1Cl)NCCc1ccccc1", "Potency": "inactive"}
{"smiles": "O=C(Nc1ccc(Br)cc1)c1cccc(N2C(=O)C3C4CCC(C4)C3C2=O)c1", "note": "(centres undefined)", "Potency": "inconclusive: 37.9 µM [inhibitor, partial curve, poor fit]"}
{"smiles": "COCCCNC(=S)N/N=C/c1cccc(OC)c1O", "Potency": "active: 9.53 µM"}
{"smiles": "Cc1ccc(C(=O)COc2cccc(NC(=O)c3ccco3)c2)cc1", "Potency": "active: 23.9 µM"}
{"smiles": "CCC(=Cc1ccc(CC)cn1)CC", "Potency": "inconclusive: 37.9 µM [inhibitor, partial curve, poor fit]"}
{"smiles": "Cc1noc(C)c1COC(=O)c1ccccc1Sc1ccccc1C#N", "Potency": "inconclusive: 15.1 µM [inhibitor, partial curve, poor fit]"}
{"smiles": "COc1ccc(-c2nnc(SCC(=O)c3cccs3)o2)cc1", "Potency": "active: 2.39 µM"}
{"smiles": "O=S(=O)(N/N=C/c1ccc(N2CCOCC2)cc1)c1ccc(Br)cc1", "Potency": "inconclusive: 16.9 µM [inhibitor, partial curve, poor fit]"}
{"smiles": "c1ccc(-c2ncc3c(ccc4ccccc43)n2)cc1", "Potency": "active: 0.0849 µM"}
{"smiles": "COc1ccc(C(=O)CC2OC(=O)c3ccccc32)cc1OC", "note": "(centres undefined)", "Potency": "inconclusive: 6.75 µM [inhibitor, partial curve, poor fit]"}
{"smiles": "Cc1cc(C)c(C)c(S(=O)(=O)NCCCn2ccnc2)c1C", "Potency": "inactive"}
{"smiles": "COc1ccccc1-n1c(-c2cn(C)nc2C)n[nH]c1=S", "Potency": "inconclusive: 21.3 µM [inhibitor, partial curve, poor fit]"}
